Test results from the supplement of paper PMC10126150.
Values marked as one replicate rest on one cluster of the flow cell; about a third of the high ones do not repeat.

System: ATP
Experiment: switch fluorescence ratio, 500 uM ATP over buffer (Cy3 cluster intensity, sum of 5 cycles each) (fold (ratio)); higher = stronger signal-on switching upon ATP binding; sequences stand for … in TCGTCGGCAGCGTCAGATGTGTATAAGAGACAGTTTTTTTTTTTTTTTTTTTTTTTTT…TC
Details: aptamer strand: ATP DNA aptamer (quencher-CACCTGGGGGAGTATTGCGGAGGAAGG + anchor), 100 nM annealed; ATP concentration: 500 uM; one replicate
In short: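 Per cluster, summed Cy3 intensity from the target cycles was divided by that from the buffer cycles to give the fluorescence ratio, then averaged per switch-domain sequence. Clusters outside 100-1000 RFU were excluded. The Cy3-labelled switching-strand clusters, on a modified Illumina MiSeq flow-cell, were annealed to 100 nM quencher-labelled ATP aptamer and imaged in selection buffer, then after 15 min with 500 uM ATP at 22 °C, for five cycles with NaOH stripping and re-annealing between them.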
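Further: ATP exposure 15 min at 22 °C before imaging.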

| Sequence | switch fluorescence ratio |
| --- | --- |
| TACCTTTAGG | 1 |
| GCAGGCATGG | 0.947 |
| ATGGCGTAGA | 1.04 |
| TTGCACGGAG | 1.01 |
| TGGGTAGCCC | 1.07 |
| TTTATACGCA | 1.2 |
| AACAGACGAT | 1.24 |
| TTAAGCGTTC | 0.969 |
| CAAGGTGCCG | 1.05 |
| TCCGGGCTAT | 1.99 |
| GGGGTGCGGC | 0.949 |
| AATAACTGG | 0.951 |
| ATGAGGTAC | 0.985 |
| TGCCGCGTCG | 1.05 |
| GCATTATGGT | 1.02 |
| CAAATGGGGA | 1 |
| TAGTGGAGT | 0.96 |
| ATTTTGGGTA | 0.988 |
| GTTACGCATT | 1.27 |
| AACTACGCTG | 1.35 |
| CTTGGACAAA | 1.01 |
| GGTGCTCGCC | 0.999 |
| GTGGCTTCAC | 0.989 |

| Sequence | switch fluorescence ratio |
| --- | --- |
| GGGCCCATAT | 1.02 |
| CAAAATTGTA | 1.03 |
| AATGTACTGG | 1.07 |
| TCAAGCATGT | 1.01 |
| AGCGTATACG | 1.01 |
| GGTCGCCAGC | 1.01 |
| CACTGCTGAC | 2.47 |
| CAAGATCG | 0.991 |
| CATGAGGTCC | 1.12 |
| AGTGCAACCA | 0.988 |
| CGGCAGAAGT | 1.04 |
| TATACCTTCG | 2.24 |
| TGGGTCCCGG | 1.02 |
| AGGTATTG | 0.989 |
| TAAGGCCTAA | 0.982 |
| CACTTGGGT | 0.949 |
| CCAACAACGG | 1.05 |
| AGTGTTACGA | 0.997 |
| GCCTGTCCGA | 1.05 |
| CCTGAGCAGA | 2.08 |
| CTATAGGTC | 0.989 |
| TTGGCACTCG | 1.02 |
| TAGAGGCCGT | 1.17 |

| Sequence | switch fluorescence ratio |
| --- | --- |
| GGGCTAGGTG | 1.76 |
| TTCATACGTC | 1.08 |
| ACAGGTATTT | 0.977 |
| AGATCCTAA | 0.975 |
| TAAATAGTCA | 1.01 |
| ACAGAGGCTA | 0.995 |
| TGGCGGGTCA | 1.01 |
| GGACCGGTCG | 0.982 |
| GCCTGACCGA | 1.3 |
| TCACATTAGC | 1.07 |
| TGATACTCAA | 0.995 |
| TGTCGTGCGG | 0.995 |
| TCTTCGTGGA | 1.07 |
| TTTCGCTCTC | 1.17 |
| AGCTAAGTGC | 1 |
| ACGGTTTCAA | 1.03 |
| ATTCGCCGAC | 1.05 |
| GCTCCCTGGA | 1.02 |
| CAATGCTCAA | 1.08 |
| ATCTTACCAG | 1.1 |
| TAGATGGGTG | 1.02 |
| GGAAAATC | 1.01 |
| AACTCCGGTG | 1.01 |

| Sequence | switch fluorescence ratio |
| --- | --- |
| ACTCGGTCA | 1.01 |
| CCTTGCTTGG | 1.06 |
| GGACTAGGGT | 1.01 |
| CTTAATATGC | 1 |
| TTTGCTCGTG | 0.963 |
| GATTTCGACA | 0.951 |
| AGATAGCAGC | 1.03 |
| AGAAAGAAAG | 1.02 |
| AATTACGTGG | 0.989 |
| CTGCCATGAG | 0.98 |
| CGTAGATGCA | 0.974 |
| AGTTAGTCCC | 0.981 |
| ACGTACGTAA | 1.1 |
| CATCGTATTT | 0.999 |
| GAACCAATTT | 1.02 |
| CCTCTAGGGG | 1.41 |
| CTCGGTCTGC | 1.05 |
| TTTACGAGGC | 1.09 |
| CCGCTGCTTT | 2.13 |
| ATCATCGGCA | 1.09 |
| CATAGTAGAG | 1.05 |
| AGAATTTTAC | 1.03 |
| TTTGTGAAAA | 1.03 |

| Sequence | switch fluorescence ratio |
| --- | --- |
| CTAAAAAGGA | 0.986 |
| CCAGTACCGT | 1.01 |
| AAGAGGTCGG | 0.968 |
| CGTCGCTAAA | 1.14 |
| TCGTACAGGT | 1.04 |
| GACGAAACGG | 1.09 |
| CCCCGCTAGT | 3.18 |
| GAAGCCCTCT | 0.992 |
| GAACCTGCAT | 1.22 |
| AGGTGTTTAT | 1.01 |
| GAAGGTGACG | 1.09 |
| AGCTTCGAAT | 0.992 |
| TCATCGATA | 1.01 |
| TGCTGGTACA | 1 |
| CTCGTCGTTT | 0.972 |
| GCCCAAGGCA | 0.961 |
| GAAAGAGTGT | 1.02 |
| ATAGAAACGA | 0.99 |
| TTGCTGCATT | 0.99 |
| GGTTTTGAAT | 1.01 |
| ACATATAGGA | 1.04 |
| GTCGGAATGG | 1.1 |
| GGACAAGTGC | 1.03 |

| Sequence | switch fluorescence ratio |
| --- | --- |
| TTTCTGGTGG | 0.965 |
| ACTATCTATA | 1.01 |
| TTATCGGGCG | 0.995 |
| TGAGGCATGA | 1.08 |
| GTAAAAAGGT | 1.01 |
| GTTGAGGGGC | 0.949 |
| ACTCTCTGCG | 1.08 |
| AAGCACCCAG | 1.19 |
| TACGACATT | 1.14 |
| ATGGGAGGT | 0.993 |
| TAGGCTGCAC | 1.04 |
| ATGTCGCAGA | 1.05 |
| TACATTAGGT | 1.01 |
| AGGTGCCGAC | 1.01 |
| GGTGTACCA | 0.958 |
| GTTCCTGATC | 1.13 |
| GATCTGATTG | 1.01 |
| CTAGTACTGC | 0.974 |
| TCGACCAGAC | 3.88 |
| ACAAATTAAC | 0.976 |
| TGGTAAACTG | 0.994 |
| TGACGGACGT | 1.09 |
| ATGTATCCGC | 1.25 |

| Sequence | switch fluorescence ratio |
| --- | --- |
| CAGAATGTGT | 1.04 |
| CGCAGCAGGG | 3.61 |
| TAGAGATGTT | 0.996 |
| GAGGGAAAGT | 1 |
| ACTTTTCGCC | 1.09 |
| AGGAACATGG | 0.949 |
| GACAGTGAGT | 1.01 |
| TTATAAGTG | 0.982 |
| CATATGTGCT | 1.02 |
| CCAGTCCAGC | 1.03 |
| GAATGTGCTT | 0.958 |
| GATAGAGCAG | 1.02 |
| ATTGCAGGGT | 0.947 |
| GCGGGGGATA | 1.03 |
| GATAAACAGG | 1.02 |
| GTGAGAGATA | 1.02 |
| AATAGACCCG | 1 |
| TAATTCCATT | 0.972 |
| CCTACCCTAC | 4.5 |
